The other results are listed elsewhere or left out. Most values come without repeats; read them as rough.
tested on: IPC-298; experiment: cell count relative to DMSO control; melanoma cells; higher = more viable cells; conditions: library dose: low library concentration; 72 h
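Also: cell number obtained by counting DAPI-stained nuclei in high-throughput microscope images with image analysis software, screen run in 1,536-well plates.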

SMILES	cell count [%]
COc1ccc(C2=N[C@@H](c3ccc(Cl)cc3)[C@@H](c3ccc(Cl)cc3)N2C(=O)N2CCNC(=O)C2)c(OC(C)C)c1 [Nutlin-3] + C/C(O)=C(\C#N)C(=O)Nc1cc(Br)ccc1Br [LFM-A13] (first compound 0.1 µM, partner dose 2 µM)	101
CCCCCCCCCCCCCCCCCCOP(=O)([O-])OC1CC[N+](C)(C)CC1 [Perifosine] + O=C(Oc1ccc([N+](=O)[O-])cc1)N1CCC(C(O)(c2ccc3c(c2)OCO3)c2ccc3c(c2)OCO3)CC1 [JZL184] (first compound 0.4 µM, partner dose 1 µM)	98.3
CCN(CC)CCNC(=O)c1c(C)[nH]c(/C=C2\C(=O)Nc3ccc(F)cc32)c1C [sunitinib] + Cc1cc(SCc2sc(-c3ccc(C(F)(F)F)c(F)c3)nc2C)ccc1OCC(=O)O [GW0742] (first compound 0.4 µM, partner dose 2 µM)	96.1
Nc1nc(F)nc2c1ncn2[C@@H]1O[C@H](CO)[C@@H](O)[C@@H]1O [fludarabine] + C/C(O)=C(\C#N)C(=O)Nc1cc(Br)ccc1Br [LFM-A13] (first compound 0.2 µM, partner dose 2 µM)	95.5
Cc1cc(Nc2cc(N3CCN(C)CC3)nc(/C=C/c3ccccc3)n2)n[nH]1 + C/C(O)=C(\C#N)C(=O)Nc1cc(Br)ccc1Br [LFM-A13] (first compound 0.04 µM, partner dose 2 µM)	103
NC1(c2ccc(-c3nc4ccn5c(=O)[nH]nc5c4cc3-c3ccccc3)cc2)CCC1 + Cc1cc(SCc2sc(-c3ccc(C(F)(F)F)c(F)c3)nc2C)ccc1OCC(=O)O [GW0742] (first compound 0.4 µM, partner dose 2 µM)	98.2
Nc1ncn([C@H]2C[C@H](O)[C@@H](CO)O2)c(=O)n1 [decitabine] + C/C(O)=C(\C#N)C(=O)Nc1cc(Br)ccc1Br [LFM-A13] (first compound 0.1 µM, partner dose 2 µM)	74.5
CCCCCCCCc1ccc(CCC(N)(CO)CO)cc1 [fingolimod] + C/C(O)=C(\C#N)C(=O)Nc1cc(Br)ccc1Br [LFM-A13] (first compound 2 µM, partner dose 2 µM)	97.8
CC[C@]1(O)C[C@H]2CN(CCc3c([nH]c4ccccc34)[C@@](C(=O)OC)(c3cc4c(cc3OC)N(C=O)[C@H]3[C@@](O)(C(=O)OC)[C@H](OC(C)=O)[C@]5(CC)C=CCN6CC[C@]43[C@@H]65)C2)C1 [vincristine] + Cc1cc(SCc2sc(-c3ccc(C(F)(F)F)c(F)c3)nc2C)ccc1OCC(=O)O [GW0742] (first compound 0.0001 µM, partner dose 2 µM)	103
Cc1ccc(Nc2nccc(N(C)c3ccc4c(C)n(C)nc4c3)n2)cc1S(N)(=O)=O [Pazopanib] + C/C(O)=C(\C#N)C(=O)Nc1cc(Br)ccc1Br [LFM-A13] (first compound 0.4 µM, partner dose 2 µM)	83.5
COc1cc([C@@H]2c3cc4c(cc3[C@@H](O[C@@H]3O[C@@H]5CO[C@@H](C)O[C@H]5[C@H](O)[C@H]3O)[C@H]3COC(=O)[C@H]23)OCO4)cc(OC)c1O [etoposide] + Cc1cc(SCc2sc(-c3ccc(C(F)(F)F)c(F)c3)nc2C)ccc1OCC(=O)O [GW0742] (first compound 0.02 µM, partner dose 2 µM)	102
Cc1cc(Nc2cc(N3CCN(C)CC3)nc(/C=C/c3ccccc3)n2)n[nH]1 + Cc1cc(SCc2sc(-c3ccc(C(F)(F)F)c(F)c3)nc2C)ccc1OCC(=O)O [GW0742] (first compound 0.04 µM, partner dose 2 µM)	103
Cn1cnc2c(F)c(Nc3ccc(Br)cc3Cl)c(C(=O)NOCCO)cc21 [selumetinib] + C/C(O)=C(\C#N)C(=O)Nc1cc(Br)ccc1Br [LFM-A13] (first compound 0.015 µM, partner dose 2 µM)	62.3
NC(=O)c1ccc(N(C(N)=O)c2c(F)cccc2F)nc1-c1ccc(F)cc1F + C/C(O)=C(\C#N)C(=O)Nc1cc(Br)ccc1Br [LFM-A13] (first compound 0.4 µM, partner dose 2 µM)	97.1

Source: the supplement of paper PMC4604168 (melanoma cell lines)
